As usually defined, the inhibition is the change of the read-out against control, counted positive when it falls.

Screen size: about 340,000 compounds; about 6,900 (2%) were called active. No stated cut-off is given here; in the data, active means inhibition above about 30%; inactive means below that, where a call was filed. The list shows a part of the results, in another mix than the full data. The source gives no active or inactive call for entries shown without one.

UniProt P14416, sequence (P14416 whole entry, looked up): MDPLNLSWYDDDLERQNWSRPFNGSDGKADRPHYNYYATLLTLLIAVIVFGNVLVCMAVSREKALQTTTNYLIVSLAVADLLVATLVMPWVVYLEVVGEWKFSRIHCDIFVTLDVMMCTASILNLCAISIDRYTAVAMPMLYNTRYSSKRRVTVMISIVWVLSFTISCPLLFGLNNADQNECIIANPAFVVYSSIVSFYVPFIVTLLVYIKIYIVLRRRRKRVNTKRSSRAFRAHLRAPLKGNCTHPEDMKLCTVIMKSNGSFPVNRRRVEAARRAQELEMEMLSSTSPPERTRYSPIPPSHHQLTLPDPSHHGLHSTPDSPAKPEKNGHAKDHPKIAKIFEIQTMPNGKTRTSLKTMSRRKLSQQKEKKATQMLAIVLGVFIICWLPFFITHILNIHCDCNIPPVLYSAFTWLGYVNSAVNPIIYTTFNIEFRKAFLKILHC

This experiment concerns the target D(2) dopamine receptor (Homo sapiens) (UniProt P14416). Description: HTS Assay for Allosteric Antagonists of the Human D2 Dopamine Receptor: Primary Screen for Antagonists. Further: 0% is about no effect. The settings on record: HEK293 TREx D2 cells, calcium flux, dopamine EC80; at 10 µM; stronger effect = higher value. The procedure, abridged:
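Dopamine at EC80 is the agonist stimulus; test compounds precede it by 180 s. Calcium flux read kinetically in a force-coupled, inducible HEK293 T-REx D2 cell line.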
(In general: A change in cytosolic calcium serves as a functional read-out for many receptors and channels.)
Consider `CN(CC(=O)Nc1ccc(Cl)cc1F)S(=O)(=O)c1ccc2c(c1)n(C)c(=O)c(=O)n2C`, for which the inhibition was found to be 13.8%.
For `Cc1cc(=O)oc2c3c(cc(OCC(=O)NCC(=O)N[C@H](C(=O)O)C(C)C)c12)OC(C)(C)CC3`, the inhibition is active: 30.1%.
For the molecule `CCc1ccc(C(c2ccccc2)c2c[nH]c3ccc(C)cc23)s1` (stereo unspecified), the inhibition was -6.49%.
Under `Cc1ccccc1NC(=O)C(=O)NCC1(c2ccccc2)CCCC1` stands -24.9%; under `COc1ccc(Cl)cc1NC(=O)c1cnc(SC)nc1-c1ccccc1`, -3.17%.
For `CCN1CCN(c2ncc3c(n2)CCN(Cc2sccc2C)C3)CC1` the value was -21.6%; for `COc1cc(NC(=O)CC(C)S(=O)(=O)c2ccc3c(c2)CCN3C(C)=O)cc(OC)c1OC` (stereo unspecified), 2.43%.
In the case of `Cc1cc2[nH]c(=O)c(=O)[nH]c2cc1S(=O)(=O)N1CCN(c2cccc(C(F)(F)F)c2)CC1`, the inhibition was -9.57%.
Under `Cc1cccc(-n2cc(-c3ccccc3)c3c(N4CCC(C)CC4)ncnc32)c1` stands 12.7%; under `CCCCN(CC)CCNC(=O)CCn1cnc2onc(-c3ccc(F)cc3)c2c1=O`, 2.91%.
For `COc1ccc(NC(=O)c2sc3nc(-c4cc5ccc(OC)cc5oc4=O)[nH]c(=O)c3c2C)cc1` the value was 13.6%; for `COc1ccc(-c2cn3nc(N4CCCC(C(=O)Nc5cc(C)ccc5C)C4)sc3n2)cc1` (stereo unspecified), -7.58%.
As to `COc1cc(NC(=O)NCC2CCN(Cc3ccccc3Cl)CC2)cc(OC)c1OC`, the inhibition was -6.46%.
Under `CSc1ccccc1NC(=O)Nc1ccc(Cl)cc1` stands active: 31.2%; under `Cc1ccc(C)c(NC(=O)Cn2nnc(C(=O)NCc3ccccc3Cl)c2N)c1`, -26.9%.
Under `Fc1ccc(-n2ncc3c(NCCCn4ccnc4)ncnc32)cc1` stands -3.29%; under `COc1cccc(C2NC(=O)c3n[nH]c(-c4cccs4)c32)c1` (stereo unspecified), 10.7%.
For the molecule `COc1ccc(Br)cc1CNC(=O)c1cnc2sc(N3CCCC3)nn2c1=O`, the inhibition was -1.51%.
For `CN1CCN(C(CNC(=O)c2ccccc2F)c2ccc3c(c2)OCO3)CC1` (stereo unspecified) the value was -1.03%; for `O=C(Cn1c(=O)nc(-c2ccccc2)c2ccccc21)NCCc1ccc(Cl)cc1`, 0.812%.
As to `COc1ccc(C(=O)N(Cc2cc(OC)c(OC)c(OC)c2)c2ccccn2)cc1`, the inhibition is -3.02%.
Under `Cc1ccc(Cl)cc1NS(=O)(=O)c1ccc2c(c1)NC(=O)CCS2` stands -1.28%; under `O=C(c1ccccc1)N1CCC(CC2CC(c3cccc(Br)c3)=NO2)(C(=O)NCC2CCCCC2)CC1` (stereo unspecified), active: 30.7%.
For `O=C(O)c1ccc(N/N=C/c2ccnc3ccccc23)cc1` the value was active: 39.9%; for `COc1ccc(OC)c(CCNC(=O)CCc2cn(Cc3cc(C)ccc3C)c3ccccc23)c1`, 16.9%; for `Cc1ccc(-n2ncc(C(=O)NCc3cccs3)c2C2CCN(C(=O)OC(C)(C)C)CC2)cc1`, -3.9%.
Turning to `Clc1ccc2c(c1)C(N1CCNCC1)=Nc1ccccc1O2`, the inhibition was active: 75.9%.
As to `Cc1ccc(CNC(=O)CN2C(=O)CCn3nc(-c4ccccc4)cc32)cc1`, the inhibition came out at 11.8%.
Under `COc1ccccc1NC(=O)C(C)Sc1nnc2ccc3ccccc3n12` (stereo unspecified) stands -5.28%; under `CCc1cccc2c(-c3ccccc3)nc(SCC(=O)Nc3ccccc3OC)nc12`, 9.18%; under `CCCCOc1ccc(C(=O)NCCc2csc(-c3cccc(F)c3)n2)cc1`, -19.7%.
Under `Cc1cccc(N2CCN(C(=O)C3CCCN(S(=O)(=O)c4ccc5c(c4)oc(=O)n5C)C3)CC2)c1C` (stereo unspecified) stands 0.859%; under `COc1ccc(C(=O)C[n+]2cccc(C)c2C)cc1[N+](=O)[O-]`, active: 58.6%.
For the molecule `Cc1oc2ccc(O)c(CN3CCCC3)c2c1C(=O)Nc1ccccc1`, the inhibition was -6.89%.
For `c1ccc(CN2CCN(c3nc4ccccc4n4cnnc34)CC2)cc1`, the inhibition is active: 67.8%.
Regarding `Cc1ccc(CNC(=O)c2ccc3c(c2)c(C)c(C)n3Cc2ccccc2)o1`, the inhibition turned out to be 9.2%.
For `O=C(COc1ccccc1Cl)OCc1cc(=O)n2nc(C3CCCCC3)sc2n1` the value was -2.3%; for `CN(C)CCCNc1oc(-c2ccccc2Cl)nc1S(=O)(=O)c1ccc(F)cc1`, active: 34.1%.
For `CCn1ccc2cc(S(=O)(=O)N3CCC(C(=O)NCCc4ccccc4Cl)CC3)ccc21` the value was -5.2%.
Take `CC1CN(CCCOc2ccccc2-c2ccccc2)CC(C)O1` (stereo unspecified): the inhibition is active: 49.7%.
Turning to `Cc1cccc(C(=O)Nc2ccc(-c3nc4ncccc4o3)cc2C)c1`, the inhibition was -19.9%.
In the case of `CC(C)OCCCNC(=O)c1cn(C)c2ccc(S(=O)(=O)N3CCCCCC3)cc2c1=O`, the inhibition was found to be 14.1%.
For `CCc1ccc(C(=O)c2cnc3ccc(F)cc3c2S(=O)(=O)c2ccccc2)cc1` the value was -2.04%; for `CCOC(=O)C1C(=O)C=C(/C=C/c2ccc(N(C)C)cc2)CC1c1ccccc1` (stereo unspecified), active: 33.3%.
On to `Cc1cccc(S(=O)(=O)c2cn(Cc3ccccc3)c3cc(N4CCOCC4)c(F)cc3c2=O)c1`, for which the inhibition was -4.93%.
As to `Cc1c2cnn(CC(=O)NCC(C)c3ccccc3)c(=O)c2c(C)n1Cc1cccc(Cl)c1` (stereo unspecified), the inhibition is -7.63%.
Under `COc1ccccc1Cn1cc(C(=O)c2ccc(Cl)cc2)c(=O)c2ccccc21` stands 18.5%.
For `CC1Cc2cc(S(=O)(=O)NCCc3ccc(Cl)cc3)ccc2N1C(=O)C1CCC1` (stereo unspecified) the value was 7.98%; for `CCc1ccccc1NC(=O)C1CCN(S(=O)(=O)c2ccccc2)CC1`, -26.3%; for `CCOC(=O)C1CCN(C(=O)c2cc(S(=O)(=O)N3CCCCCC3)ccc2OC)CC1`, active: 37.9%.
For `COc1ccc(CNC(=O)C(C)Sc2nc(-c3ccccc3)cc(C(F)(F)F)n2)cc1` (stereo unspecified) the value was 0.296%; for `COc1ccc(OCC(=O)N2CCC(c3nc4ccccc4s3)CC2)cc1`, -6.78%; for `CCCCOc1ccc(C(=O)Nc2ccc3oc(-c4cccnc4)nc3c2)cc1`, 9.67%.
As for `CCOc1cc(C(=O)NCc2ccc3c(c2)CCN3C(=O)c2ccc(F)cc2)cc(OCC)c1OCC`, the inhibition was -10.1%.
As to `O=C(NC1CCCC1)c1ccc(CSc2nc3ccncc3n2Cc2cccc(F)c2)cc1`, the inhibition amounted to 8.41%.
As to `CCOC(=O)CSC1=Nc2ccccc2C2=NC(CCC(=O)NCc3ccc(F)cc3)C(=O)N12` (stereo unspecified), the inhibition came to 0.142%.
For `O=C(NCc1cccc(F)c1)C1CCCN(C(=O)N2CCOc3ccccc32)C1` (stereo unspecified) the value was 5.83%.
Under `COc1ccccc1C1CCN(Cc2cccc(C(=O)N3CCC(O)CC3)c2)CC1` stands active: 75.5%.
For `Cc1ccc(C)c(NC(=O)C2CCCN(c3nc4ccccc4s3)C2)c1` (stereo unspecified) the value was -4.7%.
Regarding `CC1CN(C(=O)N2CCC(C(=O)NCc3cccs3)CC2)c2cc(Cl)ccc2O1` (stereo unspecified), the inhibition worked out at 7.32%.
In the case of `CCc1ccc(CNC(=O)C(C)n2ccc3cc(S(=O)(=O)N4CCCCCC4)ccc32)cc1` (stereo unspecified), the inhibition was -1.93%.
Under `Cc1cccc(NC(=O)CCS(=O)(=O)c2cccc3nsnc23)c1C` stands -6.78%.
For `COc1cccc(C(=O)NCCc2csc(-c3ccc(Cl)cc3)n2)c1` the value was -0.138%; for `Cc1ccc(NC(=O)C2CCN(S(=O)(=O)c3ccc4[nH]c5c(c4c3)CCCCC5)CC2)cc1`, -0.686%.
As for `COc1ccccc1N1CCN(c2ncnc3onc(-c4ccc(F)cc4)c23)CC1`, the inhibition came to 19.2%.
For `COc1ccc(OC)c(NC(=O)c2c(N3CCCC3=O)c3cc(OC)ccc3n2C)c1` the value was 11%.
`Cc1nc2nncn2c(Nc2ccccc2)c1C`: the inhibition is -11.9%.
On to `CCc1nn2c(=O)cc(COC(=O)c3cccc(NC(=O)c4cccs4)c3)nc2s1`, for which the inhibition is 4.12%.
In the case of `CCOC(=O)c1c(-c2ccccc2)csc1NC(=O)c1cc(=O)c2ccc(C)cc2o1`, the inhibition was 0.394%.
Consider `COCCNC(=O)Nc1cc(C(=O)NCc2ccc(C(C)C)cc2)ccc1N1CCCC1`, for which the inhibition was found to be 2.36%.
As for `COc1cc(C2NC(=O)c3c(sc4c3CCN(C)C4)N2)cc(Br)c1OC(=O)c1ccc(C)cc1` (stereo unspecified), the inhibition came out at 3.55%.
Under `Cc1ccccc1-n1nc(CO)c(C(=O)NCc2cccnc2)n1` stands -21.8%; under `CCc1cccc(C)c1NC(=O)Cn1cnc2c1c(=O)n(C)c(=O)n2C`, 4.4%.
For `COc1ccc(CCNC(=O)CSc2nc3ccccc3o2)cc1` the value was active: 39.2%; for `CCOC(=O)C1CCN(C(c2ccc(SC)cc2)c2c(O)cc(C)n(Cc3ccco3)c2=O)CC1` (stereo unspecified), 1.73%; for `COC(=O)c1cc2sc(Cl)cc2n1Cc1c(C)cc(C)cc1C`, 13.4%.
Under `COc1ccc(-c2c(C)c3ccc(O)c(CN4CCOCC4)c3oc2=O)cc1` stands -11.4%.
In the case of `CCn1c2ccccc2c2cc(NC(=O)COc3ccc(C)cc3C)ccc21`, the inhibition is -24.4%.
Take `COc1ccc(OC)c(CNC(=O)c2ccc(C)c(NC(=O)c3nsc4ccccc34)c2)c1`: the inhibition is 0.176%.
For `CCCCNC(=O)C1CCN(S(=O)(=O)CCC)CC1`, the inhibition is 1.65%.
In the case of `CCOc1ccc(OCC)c(NS(=O)(=O)c2cc(-c3cnc(C)o3)ccc2OC)c1`, the inhibition was found to be 8.75%.
On to `COc1ccc(-c2cc(C)no2)cc1S(=O)(=O)Nc1c(C)cc(C)cc1C`, for which the inhibition is 10.4%.
For `Cc1ccc(Cn2c(CNS(=O)(=O)c3cccc([N+](=O)[O-])c3)nc3cccnc32)cc1` the value was 20.6%; for `COc1ccc(C)cc1NC(=O)c1ccc2c(=O)n3c(nc2c1)CCCCC3`, -8.87%; for `CCC(C)(C)NC(=O)c1ccc2c(c1)N(CC(=O)NC1CCCC1)C(=O)C(C)(C)O2`, active: 62.3%.
With `Cc1cccc(-c2nc3c4ccccc4nc(N4CCN(c5ccccc5F)CC4)n3n2)c1`, the inhibition is -5.19%.
In the case of `Cc1ccc(CNC(=O)NCc2noc3ccc(C)cc23)cc1`, the inhibition turned out to be 2.5%.
As to `COc1ccc(C(=O)NCCn2cc(SCC(=O)Nc3ccc(C)cc3)c3ccccc32)cc1`, the inhibition was -22.7%.
Under `Cn1c(=O)c2c(-c3ccc(Cl)cc3)n(Cc3ccc(Cl)cc3)cc2n(C)c1=O` stands 5.77%.
Turning to `COc1ccccc1OCCCSc1nc(-c2ccc(C(C)(C)C)cc2)nc2cc(=O)[nH]n12`, the inhibition was -1.22%.
Turning to `Cc1ccc(NC(=O)C(Cc2ccccc2)n2cccc2)cc1` (stereo unspecified), the inhibition is -12.9%.
As to `COCCCn1c(=O)c2sccc2n2c(CCCC(=O)Nc3cc(C)cc(C)c3)nnc12`, the inhibition was determined as 14.3%.
Under `COc1ccc(CNC(=O)Cn2ncc3c4ccccc4n(Cc4cccc(Cl)c4)c3c2=O)cc1` stands 9.11%.
In the case of `OCCN1CCN(CCCN2c3ccccc3Sc3ccc(C(F)(F)F)cc32)CC1`, the inhibition is active: 59.7%.
For `Cc1ccc(C)c(S(=O)(=O)c2cn(C)c3cc(N4CCCCC4C)c(F)cc3c2=O)c1` (stereo unspecified) the value was -0.644%; for `COc1ccc(OC)c(NCc2cccn2-c2nnc(N3CCCCC3)s2)c1`, 7.14%.

The values above are taken from PubChem BioAssay AID485344 (National Center for Advancing Translational Sciences (NCATS), 2010).
